Source: paper PMC4336329 (PLoS ONE, 2015)
Screen size: about 310,000 compounds; about 2,200 (0.71%) showed an effect of 50% or more. Effects have a minus sign here. Some of the results follow.

target: human ether-à-go-go-related gene (hERG) potassium channel (human, UniProt Q12809); assay: primary screen, population patch clamp on CHO cells stably expressing hERG
Sequence (Q12809 whole entry, looked up): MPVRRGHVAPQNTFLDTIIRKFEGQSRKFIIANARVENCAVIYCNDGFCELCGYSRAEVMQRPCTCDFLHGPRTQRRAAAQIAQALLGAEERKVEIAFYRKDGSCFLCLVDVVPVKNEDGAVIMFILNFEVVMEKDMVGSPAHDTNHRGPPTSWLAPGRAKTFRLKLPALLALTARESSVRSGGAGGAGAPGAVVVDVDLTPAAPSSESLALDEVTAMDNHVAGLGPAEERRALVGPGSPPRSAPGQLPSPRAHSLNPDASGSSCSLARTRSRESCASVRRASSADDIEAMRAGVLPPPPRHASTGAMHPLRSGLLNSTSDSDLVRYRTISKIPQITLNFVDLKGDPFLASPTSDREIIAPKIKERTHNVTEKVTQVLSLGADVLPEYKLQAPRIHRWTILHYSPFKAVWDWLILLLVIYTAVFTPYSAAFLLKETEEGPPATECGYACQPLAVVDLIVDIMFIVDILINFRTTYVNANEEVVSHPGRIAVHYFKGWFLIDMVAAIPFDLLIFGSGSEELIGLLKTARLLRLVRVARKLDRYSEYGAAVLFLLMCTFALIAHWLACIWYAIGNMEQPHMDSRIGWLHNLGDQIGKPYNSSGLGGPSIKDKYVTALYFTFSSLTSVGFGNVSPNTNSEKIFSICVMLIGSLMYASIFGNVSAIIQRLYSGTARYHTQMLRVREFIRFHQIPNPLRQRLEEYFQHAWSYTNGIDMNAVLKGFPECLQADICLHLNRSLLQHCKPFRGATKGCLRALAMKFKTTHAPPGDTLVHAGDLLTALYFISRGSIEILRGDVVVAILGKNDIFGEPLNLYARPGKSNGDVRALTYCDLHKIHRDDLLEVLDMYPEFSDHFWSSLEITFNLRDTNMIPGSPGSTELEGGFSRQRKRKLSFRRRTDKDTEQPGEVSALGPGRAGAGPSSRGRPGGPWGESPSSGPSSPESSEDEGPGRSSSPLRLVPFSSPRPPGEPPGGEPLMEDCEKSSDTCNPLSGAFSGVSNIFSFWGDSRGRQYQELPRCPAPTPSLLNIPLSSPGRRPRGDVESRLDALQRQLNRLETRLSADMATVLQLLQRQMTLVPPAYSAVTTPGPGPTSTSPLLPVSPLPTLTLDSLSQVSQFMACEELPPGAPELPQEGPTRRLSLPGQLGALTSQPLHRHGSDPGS

Row | Structure (SMILES) | hERG current change (%, negative = inhibition) at 1uM [%]
1 | O=C(Nc1cc(C(F)(F)F)ccc1N1CCOCC1)c1ccco1 | 11.1
2 | COc1ccc(Cl)cc1NC(=O)COc1ccc2c(c1)OCO2 | 15.9
3 | Cc1c(Cl)cccc1NC(=O)COC(=O)Cc1ccsc1 | 5.97
4 | C[C@]12CCC(=O)C=C1C=C[C@@H]1[C@@H]2CC[C@@]2(C)[C@H]1CC[C@@]21CCC(=O)O1 | 2.93
5 | CCN(CC)S(=O)(=O)c1ccc(N2CCOCC2)c(NS(=O)(=O)c2ccc(C)c(C)c2)c1 | 8.34
6 | COc1ccc(NC(=S)NC(NC(=O)c2cccc(C)c2)C(Cl)(Cl)Cl)c([N+](=O)[O-])c1 (centres unmarked) | 9.22
7 | CCCC[n+]1ccn(-c2nc3ccccc3nc2[N-]S(=O)(=O)c2ccc(Br)cc2)c1 | 4.61
8 | CC1(C)C(=O)N(c2ccccc2Cl)C(=O)c2ccccc21 | 17.4
9 | NNC(=O)C1CC1(c1ccccc1)c1ccccc1 (centres unmarked) | 9.99
10 | CC1=NN(c2ccc(C(=O)O)cc2)C(=O)/C1=C/c1ccc(-c2ccccc2F)o1 | 15.2
11 | Cc1ccc(SCc2nnc(NC(=O)c3ccccc3)s2)cc1 | 0.501
12 | CC(=O)Nc1ccc(NS(=O)(=O)Cc2ccccc2)cc1 | 12.7
13 | COc1ccc(OC)c(N(/C(N)=N/c2nc(C)cc(C)n2)S(=O)(=O)c2ccc(NC(C)=O)cc2)c1 | 6.4
14 | COc1ccc(NC(=O)CNC(=O)C23CC4CC(CC(C4)C2)C3)c(OC)c1 | -1.59
15 | O=C(NCc1cccs1)C(=O)NCC(c1ccco1)N1CCN(c2ccccc2)CC1 (centres unmarked) | 14.2
16 | O=C(Nc1cc([N+](=O)[O-])ccc1O)c1cccc(C(=O)Nc2cc([N+](=O)[O-])ccc2O)c1 | 18.4
17 | COc1ccc(S(=O)(=O)N2CCC(C(=O)NCC3CCCO3)CC2)cc1 (centres unmarked) | -3.75
18 | COc1ccc(OC)c(/C=C/C(=O)OCC(=O)NCc2ccco2)c1 | 5.73
19 | COc1ccccc1N1CCN(CC(=O)N2CCCC2)CC1.O=C(O)C(=O)O | 7.69
20 | CCOC(=O)C1CCN(S(=O)(=O)c2ccc(CC)cc2)CC1 | 13.7
21 | C=CCNC(=O)c1ccccc1SCc1c(C)noc1C | 14
22 | Cc1ccc(OCC(O)Cn2c(N3CCCCC3)nc3c2c(=O)[nH]c(=O)n3C)cc1 (centres unmarked) | 10.4
23 | CCN(CC)C(=O)Cn1cc(S(=O)(=O)CC(=O)NCc2ccccc2)c2ccccc21 | 3.37
